Laboratory results taken from the supplement of paper PMC3334620.
In all, about 33,000 sequences were measured (“E-score (-0.5 to 0.5)”: median about -0.035, highest 2% from about 0.35 on). The list shows a part of the results.

biological target: T1, Pdr3 (UniProt P33200); experiment: PBM E-score (8-mer binding enrichment) (E-score (-0.5 to 0.5)); higher = stronger / more preferred TF binding; most listed sequences are background and not binding sites; conditions: protein concentration: 200 nM; construct: GST-full length
T1 sequence: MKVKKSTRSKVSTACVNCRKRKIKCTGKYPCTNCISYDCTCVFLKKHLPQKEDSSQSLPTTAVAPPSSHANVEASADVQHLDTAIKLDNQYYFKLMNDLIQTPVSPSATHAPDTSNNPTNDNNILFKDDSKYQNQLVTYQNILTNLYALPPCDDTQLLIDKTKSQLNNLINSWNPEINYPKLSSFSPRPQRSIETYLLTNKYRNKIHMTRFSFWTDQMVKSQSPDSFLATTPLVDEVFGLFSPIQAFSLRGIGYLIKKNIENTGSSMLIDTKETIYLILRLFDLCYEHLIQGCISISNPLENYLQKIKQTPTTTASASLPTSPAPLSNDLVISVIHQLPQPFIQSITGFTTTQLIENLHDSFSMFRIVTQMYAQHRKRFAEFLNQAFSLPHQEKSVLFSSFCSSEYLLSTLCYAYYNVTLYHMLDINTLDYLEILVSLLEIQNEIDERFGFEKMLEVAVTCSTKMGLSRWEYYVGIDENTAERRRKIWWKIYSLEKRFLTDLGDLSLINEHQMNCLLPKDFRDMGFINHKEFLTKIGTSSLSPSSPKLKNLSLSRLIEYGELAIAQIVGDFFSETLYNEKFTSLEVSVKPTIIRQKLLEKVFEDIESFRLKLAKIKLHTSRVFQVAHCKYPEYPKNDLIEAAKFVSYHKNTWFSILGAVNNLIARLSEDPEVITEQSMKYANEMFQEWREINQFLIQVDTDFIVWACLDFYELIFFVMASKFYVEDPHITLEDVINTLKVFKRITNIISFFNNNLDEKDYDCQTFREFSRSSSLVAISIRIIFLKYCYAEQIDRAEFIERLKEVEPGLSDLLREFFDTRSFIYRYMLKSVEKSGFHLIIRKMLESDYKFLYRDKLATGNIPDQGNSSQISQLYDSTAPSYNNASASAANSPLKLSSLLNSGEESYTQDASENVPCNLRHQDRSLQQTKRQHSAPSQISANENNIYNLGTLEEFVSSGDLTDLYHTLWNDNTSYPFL
Description: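 Universal 'all 10-mer' protein binding microarrays (Agilent AMADID 015681) probed with GST-tagged S. cerevisiae TFs (full-length or DBD) made by in vitro transcription/translation (PURExpress), about 100-200 nM. Bound TF was detected with fluorescent anti-GST. Each ungapped 8-mer (which stands for itself and its reverse complement) is scored by the PBM enrichment score (E-score), a modified Wilcoxon-Mann-Whitney statistic from -0.5 to +0.5, computed with the Universal PBM Analysis Suite. Scale: above 0.35 generally sequence-specific binding.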

Sequence	PBM E-score
CCCGCCAA	0.192
CGGGCGGC	0.291
CTAGATTC	-0.0783
CTAACTCA	-0.239
ATCGAACA	-0.0304
CGGATGGC	0.256
ACATTTTA	-0.0788
GCGTTCGA	-0.118
GCGCGGAC	0.305
GTAATTTA	-0.0395
CCCTGGTC	-0.0525
CCCAATGC	-0.194
ACCTGAAT	0.0497
ACCAAAGG	-0.186
CGTTTTAA	-0.0191
AGACGGAA	0.422
ACGAATTA	-0.148
TCCCTAAA	-0.142
GAGTATAA	0.0207
AAAGTGAA	0.057
ATTCGGGC	0.0757
CTACTCAC	-0.0222

Sequence	PBM E-score
ACTCCACA	-0.0854
AACGGTTG	-0.108
AGGGGTCG	-0.27
CTGCTGAA	-0.15
CTGTCGTC	-0.149
GACCAGCC	0.114
AGCAGCAC	-0.129
TACAACTA	-0.025
ATGAAACA	-0.111
CCGTGCAA	0.115
AGAGTAAG	-0.0626
GGATGACC	3e-05
AACACTAT	0.148
AGTGTCAC	0.0357
GCTTTATA	-0.0639
GCAATAAC	0.0544
GACCGACA	-0.0173
ATAGTATA	0.131
AATAGGAC	-0.0505
AATCGTAC	0.0749
CAGTCAGC	-0.113
CTTCAAAA	-0.0259

Sequence	PBM E-score
AAAATGGA	0.152
ACTCAATA	-0.0454
GAATCGAA	0.0265
CATGTACG	0.00428
ACGTGACA	-0.203
ACTGGACA	0.0362
ACTACTCT	-0.0836
GACCGAGC	0.0956
ACACCGAA	0.108
AGCGTCTA	-0.18
GTCCGTCA	0.213
AGAAACCT	0.0541
CAGCGTTC	-0.0264
AATGTATA	0.0929
GCATGGAA	0.0983
CCGGTAGC	0.197
CTCAGTTA	-0.0937
CGAAGAAC	0.119
AATTAGTA	0.0198
AGTCTCTA	-0.297
GTGCGAGA	-0.157
CGGTCGAG	-0.014

Sequence	PBM E-score
CTCTCTCC	0.0299
TGATGAAA	-0.1
GCAGGAAA	-0.081
ACACCTCG	0.0245
GAGGACGA	0.022
ATTGCACG	0.0604
CTCCCTGC	-0.246
ATAAGCAA	-0.128
TGAGTACA	-0.108
AAGGCACT	-0.138
TGAGACAA	-0.0208
ATGCGGTG	-0.146
GAACCATA	0.148
CCTTGAAA	-0.159
CTCATTAA	-0.0153
TCATTGGA	-0.11
CCCTATGA	-0.112
CCATTGCG	0.185
GGGGCCAC	0.00432
GCCGGCAC	0.392
GGATGCAC	0.101
AGTTGGTC	-0.0107

Sequence	PBM E-score
ATTCGAAA	0.055
CAAGGAGA	-0.142
AAAACGAT	-0.222
CCGAACCG	0.265
AGCGACAT	-0.0907
ATTATACA	-0.093
ACGCTCGG	0.226
AACGCCCT	-0.206
CGGAGGAG	0.162
CAACAGCG	-0.0749
CAAATCGC	-0.118
GAGGGACC	-0.232
CTTAAGTC	-0.0654
ATCTAAGA	-0.15
ACGTAACA	-0.204
GGACCGAA	0.193
AAGGGAAC	-0.121
ACGGCCGT	0.335
ATGTGTGC	-0.089
CTTGCGGA	0.137
TAGTGCAA	-0.0608
